Data: PubChem BioAssay AID504832 (National Center for Advancing Translational Sciences (NCATS), 2011)
The whole screen tested about 310,000 compounds, of which about 18,000 (5.8%) were called active. This list was built around the results that the source calls inconclusive (neither active nor inactive); the mix of calls is not that of the screen. The call rests on the fitted dose curve; in most records, active means well fitted inhibition curve with a large enough effect; inconclusive means small, poorly fitted or top-dose-only effect, or another doubt; inactive means no such curve, though single readings can be large or run the other way. Potencies of inconclusive entries are left out as doubtful fits.

Experiment: Primary qHTS for delayed death inhibitors of the malarial parasite plastid, 48 hour incubation
Details: P. falciparum luciferase growth in erythrocytes; series mostly up to 28.7 µM; activity change, negative = inhibition: at the top concentration
Procedure, shortened: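 Luciferase-expressing P. falciparum in infected erythrocytes (2% hematocrit, 0.1% parasitemia final) in RPMI 1640/0.5% Albumax were exposed to compound for 48 hours at 37 C, 5% CO2; growth read as luminescence.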
On the % scale 0 is the no-effect control and ±100 the full control effect; potency means the concentration at half of the fitted maximal effect; tags describe the fitted curve by direction and shape.

| Structure (SMILES) | Potency | activity change, negative = inhibition |
| --- | --- | --- |
| Cc1nc(NCCc2ccccc2F)c(C#N)c(C)c1[N+](=O)[O-] | inconclusive [inhibitor, single point] |  |
| CCN(CC(=O)Nc1ccc(NC(C)=O)cc1)C(=O)c1ccc(COc2ccccc2)o1 | inconclusive [inhibitor, partial curve, poor fit] |  |
| CCN[C@@H]1CN(CCCOC)S(=O)(=O)c2sc(S(N)(=O)=O)cc21 |  | inactive: -9.98% [at 12.8 µM] |
| CCCCn1c(N)c(N(CCOC)C(=O)c2ccc(N3CCCC3)c([N+](=O)[O-])c2)c(=O)[nH]c1=O | inconclusive [inhibitor, single point] |  |
| CSCCC(NS(=O)(=O)c1ccc2c(c1)OCCO2)C(=O)N(C)Cc1ccc(F)cc1 (stereo not given) | inconclusive [inhibitor, single point] |  |
| COCCN(Cc1cc2cc(C)c(C)cc2nc1Cl)C(=O)Nc1ccccc1 | inconclusive [inhibitor, single point] |  |
| C=CCC(C)(NCc1ccccc1)c1ccccc1 (stereo not given) | inconclusive [inhibitor, single point] |  |
| CC(C)c1ccccc1OCCCCCNCCO | active: 4.15 µM |  |
| CCN(CC)C(=O)NCc1c(C)cc(C)cc1C |  | inactive: -13.1% |
| COc1cccc(NC(=O)Nc2cc(NC(=O)Nc3cccc(OC)c3)c(C)nc2C)c1 |  | inactive: 21.7% |
| CC(=O)Nc1ccc(NC(=O)CSc2nnc(CNc3ccc(F)cc3)n2CC2CCCO2)cc1 (stereo not given) | inconclusive [inhibitor, single point] |  |
| Cc1snc(SCc2cccc(Cl)c2)c1C#N |  | inactive: 16.8% |
| FC(F)(F)c1cccc(N2CCN(Cc3cccnc3)CC2)c1 | inconclusive [inhibitor, single point] |  |
| COc1ccc2c(c1)c(C(=O)CN1CCN(c3ccccc3)CC1)c(C)n2C | inconclusive [inhibitor, partial curve] |  |
| Clc1ccc(-n2nnnc2-c2cnc(-c3ccccn3)nc2-c2cccs2)cc1 | active: 3.7 µM |  |
| CC(=O)Nc1ccc(NC2=CC(=O)c3ccccc3C2=O)cc1 | inconclusive [inhibitor, single point] |  |
| Cc1ccc(S(=O)(=O)Nc2ccc3c(c2)nc2n3CCN(Cc3ccccc3)C2)cc1 | inconclusive [inhibitor, single point] |  |
| CCc1noc(C)c1C(=O)NCCc1c[nH]c2ccccc12 | inconclusive [inhibitor, single point] |  |
| COc1ccc2c(c1)S(=O)(=O)c1ccccc1N2 |  | inactive: 13.8% |
| CC(C)CCOc1ccc(C(=O)NCC(c2cccs2)N2CCOCC2)cc1 (stereo not given) | inconclusive [inhibitor, single point] |  |
| COc1ccc(CNC(=O)C2CC(=O)N(c3ccc(OCC(=O)N4C(C)CCCC4C)cc3)C2)cc1 (stereo not given) | inconclusive [inhibitor, single point] |  |
| O=C(NC1CCCC1)C(c1ccccc1)N(Cc1ccc(F)cc1)C(=O)c1csnn1 (stereo not given) | inconclusive [inhibitor, single point] |  |
| CC(C)c1ccc(NC2CCCN(C(=O)c3cccc(N4CCNC4=O)c3)C2)cc1 (stereo not given) | inconclusive [inhibitor, single point] |  |
| Cc1ccccc1CN1CCCN(Cc2ccc(Cl)cc2)S1(=O)=O |  | inactive: 12.1% |

| Structure (SMILES) | Potency | activity change, negative = inhibition |
| --- | --- | --- |
| COc1ccc(OCC(O)Cn2c(=N)n(Cc3ccccc3)c3ccccc32)cc1 (stereo not given) | inconclusive [inhibitor, partial curve] |  |
| Cc1[nH]c2c(ccc3ccccc32)c1C1C(CCN)C1(C)C (stereo not given) | active: 10.4 µM |  |
| Cc1ccc(NC(=O)CSc2nc(C)c(Cc3ccccc3)c(=O)[nH]2)cc1 |  | inactive: 15.5% |
| O=C(Nc1ccccc1Oc1ccccc1)c1ccccc1F | inconclusive [inhibitor, partial curve, poor fit] |  |
| COc1ccccc1NC(=S)N1CCCCCC1 |  | inactive: 26.6% |
| O=C(COC(=O)c1ccc2ncsc2c1)NC(=O)c1ccccc1 |  | inactive: 16.9% |
| Cn1c(CC(=O)NNC(=O)c2ccc(F)cc2Cl)nc2ccccc21 | inconclusive [inhibitor, partial curve] |  |
| COc1cc(OC)cc(-c2c(C#Cc3ccsc3)c3cc(-c4cccc5[nH]ccc45)ccc3n2C)c1 | active: 11.7 µM |  |
| Oc1cc(NCc2ccc(F)cc2)cc2cccnc12 | active: 2.62 µM |  |
| CC1SCC(NC(=O)c2ccccc2Cl)CS1 (stereo not given) |  | inactive: 69.7% |
| CCN(CC)S(=O)(=O)c1ccc(NC(=O)Cn2c(=O)sc3ccccc32)cc1 | inconclusive [inhibitor, partial curve, poor fit] |  |
| O=S(=O)(c1ccc2ccccc2c1)N1CCN=C1SCc1cccnc1 |  | inactive: 12.7% |
| COc1cc(C(C)=O)ccc1OCC(=O)N(CCC1=CCCCC1)c1c(N)n(Cc2ccccc2)c(=O)[nH]c1=O | inconclusive [inhibitor, single point] |  |
| c1ccc(CN2CCC(N=C3NN=C(c4ccc5c(c4)OCCO5)CS3)CC2)cc1 | inconclusive [inhibitor, single point] |  |
| Cc1ccc(S(=O)(=O)NC(=O)NCC2CCN(S(=O)(=O)c3ccccc3)CC2)cc1 |  | inactive: 19.8% |
| O=C(CSc1nc2ccccc2c(=O)n1-c1ccccc1F)NC1CCS(=O)(=O)C1 (stereo not given) |  | inactive: 15.5% |
| CC(=O)c1ccc(OCc2cc(C(=O)N3CCCCC3c3cccnc3)no2)cc1 (stereo not given) | inconclusive [inhibitor, single point] |  |
| Cc1cc([N+](=O)[O-])cnc1Sc1nccn1C |  | inactive: -0.678% |
| CCCN(CCC)S(=O)(=O)c1ccc(C(=O)Nc2cccnc2)cc1 | inconclusive [inhibitor, partial curve] |  |
| CC(C(=O)Nc1cc([N+](=O)[O-])ccc1Cl)N1CCN(c2ccc(O)cc2)CC1 (stereo not given) |  | inactive: -27.5% |
| CCOc1ccc(NC(=O)c2cccc(NC(C)=O)c2)cc1S(=O)(=O)N1CCCC1 |  | inactive: 31.1% |
| O=S1(=O)CCC(NC(=S)Nc2ccc3ccccc3c2)C1 (stereo not given) |  | inactive: 43% |
| COc1ccc2cc(-c3ccn[nH]3)ccc2c1 |  | inactive: 9.35% [at 0.00184 µM] |
| CCOc1ccc(OCC(=O)N(CCC2=CCCCC2)c2c(N)n(Cc3ccccc3)c(=O)[nH]c2=O)cc1 | inconclusive [inhibitor, single point] |  |

| Structure (SMILES) | Potency | activity change, negative = inhibition |
| --- | --- | --- |
| COc1cc(/C=C/C(=O)OCC(=O)N2CC(=O)Nc3ccccc32)ccc1O | inconclusive [inhibitor, partial curve] |  |
| CC(C)n1ncc2c(C(=O)Nc3cccc(S(=O)(=O)N(C)C)c3)cc(C3CC3)nc21 | active: 11.7 µM |  |
| Cc1ccc(NC(=O)CN(C)C(=O)c2cn(Cc3ccccc3)nc2-c2cccnc2)cc1 | inconclusive [inhibitor, partial curve] |  |
| CCC(=O)N1CCc2cc(S(=O)(=O)NC(C(=O)N3CCc4ccccc4C3)C(C)C)ccc21 (stereo not given) | inconclusive [inhibitor, partial curve] |  |
| COc1cccc(-c2cn(C[C@H]3CC[C@@H]([C@@H]4CC[C@H](Cn5cc(-c6cccc(OC)c6)nn5)O4)O3)nn2)c1 | inconclusive [inhibitor, single point] |  |
| N=C(N)c1ccc(N)cc1 | inconclusive [inhibitor, partial curve, poor fit] |  |
| O=C(Nc1sc2c(c1C(=O)NCC1CCCO1)CCCC2)c1cccs1 (stereo not given) | inconclusive [inhibitor, single point] |  |
| Cc1csc(C(C)NC(=O)c2ccc(OC3CCN(CCc4ccccc4)CC3)cc2)n1 (stereo not given) | active: 10.4 µM |  |
| C=CCOc1ccc(CNc2nccs2)cc1 |  | inactive: 78.3% |
| CC(=O)N1N=C(c2ccc(C)cc2)OC1c1ccc(Br)cc1 (stereo not given) |  | inactive: 72.6% |
| CC(=O)c1ccc(Nc2cc(C)nc3nc(C)nn23)cc1 | inconclusive [inhibitor, single point] |  |
| Cn1c(SCC(=O)N2CCCC2)nc2ccccc2c1=O | inconclusive [inhibitor, full curve, poor fit] |  |
| Cc1ccc(CNC(=O)CCn2cc(-c3ccc(C)cc3)nc2-c2ccncc2)cc1 | inconclusive [inhibitor, single point] |  |
| O=C(CNc1cc(S(=O)(=O)N2CCCC2)ccc1OCC(F)(F)F)Nc1cccc(C(F)(F)F)c1 | inconclusive [inhibitor, single point] |  |
| Cc1ccc2nc(Nc3ccc(C)c(Cl)c3)c3nncn3c2c1 | inconclusive [inhibitor, single point] |  |
| O=C(NNC(=O)c1sccc1-n1cccc1)Nc1ccc(F)cc1 | inconclusive [inhibitor, single point] |  |
| CC1Cc2ccccc2N1S(=O)(=O)c1ccc2c(c1)n(C)c(=O)c(=O)n2C (stereo not given) | active: 9.28 µM |  |
| CC1CC(C)CN(CCCNC(=O)c2cc3c(=O)[nH]c4ccccc4c3n2C)C1 (stereo not given) | inconclusive [inhibitor, single point] |  |
| COC(=O)C1=C(N)N(c2ccc(F)cc2)C2=C(C(=O)CCC2)C1c1ccc2c(c1)OCO2 (stereo not given) | active: 10.4 µM |  |
| CC1CN(S(=O)(=O)c2cccc(C(=O)Nc3ccc(S(=O)(=O)Nc4ncccn4)cc3)c2)CC(C)O1 (stereo not given) | inconclusive [inhibitor, single point] |  |
| CCOC(=O)c1[nH]c(=O)[nH]c1CSc1nc(C)cc(C)n1 | inconclusive [inhibitor, single point] |  |
| Cc1ccccc1N(C(=O)CCC(=O)Nc1ccccn1)C(C(=O)NC(C)C)c1ccc(O)cc1 (stereo not given) | inconclusive [inhibitor, single point] |  |
